Results from PMC4242493.
The other results are listed elsewhere or left out. The list includes weakly bound sequences.

The sequences below were run against MaxL homodimer (UniProt P61244) (assay: universal protein-binding microarray (PBM)). Conditions: PBS-based mixture, 10 nM His-tagged protein dimer, 2% milk, 200 ng/uL BSA, 50 ng/uL salmon testes DNA, 0.02% TX-100; detection with Alexa 488 anti-His …; high values mean tight binding; most listed sequences are background and not binding sites; double strand, one strand shown.
UniProt P61244, sequence (P61244 whole entry): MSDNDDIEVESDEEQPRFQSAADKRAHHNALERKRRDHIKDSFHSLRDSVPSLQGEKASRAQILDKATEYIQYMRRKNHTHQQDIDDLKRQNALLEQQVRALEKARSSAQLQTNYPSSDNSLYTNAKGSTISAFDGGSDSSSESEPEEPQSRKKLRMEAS

Sequence | binding signal (normalized occupancy)
AATTCACC | 0.0742
GCGGTCAA | 0.0762
TATCATAA | 0.0897
AAGGTATT | 0.0755
GTGTAGTA | 0.0864
AGCAAGGA | 0.0721
ACGTCATA | 0.0787
CGTGCAGC | 0.0858
GAAGTATC | 0.0757
TCGGGAAA | 0.0705
ATCTCGGC | 0.0678
ATGGAGGC | 0.0802
GCGAACCC | 0.0753
CATAAGGA | 0.0837
AAATTATA | 0.0808
CGGCAATA | 0.0748
AAACGCCA | 0.0743
AAAGCATC | 0.0796
AGATAGCA | 0.0768
CACCGAGC | 0.0669
CTTTGCAA | 0.067
ATAACGGC | 0.0766

Sequence | binding signal (normalized occupancy)
CGGTAAGA | 0.0693
CAGTGGCG | 0.0736
AATCCCAT | 0.0807
TCCCACAA | 0.0789
CGGGACTC | 0.0712
AATACCGG | 0.0681
ATAGTCAC | 0.081
AAGCTGCA | 0.0738
CGGCGTAC | 0.0726
ACGACCTA | 0.0691
GGCTTATA | 0.0778
CCTACGAA | 0.0718
TACGCTAA | 0.0741
AGACCTAT | 0.0743
ATAGTACA | 0.0758
CGTGACCC | 0.0843
GCAAATGA | 0.0723
CGATAGAG | 0.0768
TACAATCA | 0.0812
CGTATACA | 0.0842
AATTTCGG | 0.0697
CGAACAAG | 0.0691

Sequence | binding signal (normalized occupancy)
CGAAGAGC | 0.0649
CCTGACAC | 0.078
ACGCAGGA | 0.0789
ATTCGGCG | 0.0711
CATGAAAG | 0.0828
AATTTCCC | 0.0764
GACGGCGC | 0.0703
CGACCAAA | 0.0712
AACATTCA | 0.0761
CGACGTGC | 0.083
CCGAATAC | 0.0774
CGTGACTA | 0.0874
AACCGATT | 0.0695
CAGGGCGA | 0.0755
AATCACCC | 0.0785
ATTCGGTC | 0.0761
GACAACAC | 0.0755
CATTCTAC | 0.0837
CGGCTCCC | 0.0671
AACCCGTT | 0.0707
GCGAGATA | 0.077
TCCATGCA | 0.0861

Sequence | binding signal (normalized occupancy)
GTAACGAC | 0.0703
AAAATATC | 0.0749
AATCAAAT | 0.0727
CATGTCAA | 0.082
AACGGACA | 0.0769
CTACCCGA | 0.0741
ACACTTGC | 0.0791
CTCATTGA | 0.0753
ATAAGCTC | 0.0761
CTATTGTA | 0.0774
AGAATGAT | 0.0794
AAGACATG | 0.0912
GTTACCGA | 0.0729
GAACGCCC | 0.0688
CAGAGTAG | 0.0757
GCACCCGA | 0.0703
CACTTTTC | 0.0739
GTGGGCTA | 0.0797
CCATGAGC | 0.0818
CTGGGCCA | 0.0738
AGTGTAAC | 0.0735
ATATGAAC | 0.0832

Sequence | binding signal (normalized occupancy)
CCGGTTTA | 0.0706
ACTGGTAT | 0.0789
GCTTAAGC | 0.0692
GGCGGCTA | 0.0675
GTGAACTA | 0.0787
ATGCCGCC | 0.0781
CTGTACAA | 0.0803
CGATCTCA | 0.0761
ATTACGCC | 0.0746
TAGCGAAA | 0.0727
CTGAGGTC | 0.0719
CCGCCGCA | 0.0717
CCCTTTTC | 0.072
AGCTCAAA | 0.0648
ACCTGGCA | 0.0804
CCGGCCCC | 0.0685
AAGTCATG | 0.0872
GCCCAGAC | 0.0742
ACTGTTGA | 0.0804
GAGTGAAA | 0.0757
CATCATAA | 0.0773
